Reference: the supplement of paper PMC10338343
± gives the standard deviation. The list shows a part of the results, in another mix than the full data.

Test system: MIWI (PIWIL1) piRISC loaded with L1MC piRNA (30 nt)
Test: pre-steady-state target cleavage rate (min^-1); MIWI and MILI are mouse PIWI proteins and EfPiwi is from a freshwater sponge; tags in brackets are library labels; higher = faster piRNA-guided slicing of the target
Conditions: guide: L1MC piRNA 5'p-UAACUAAAUACUAUGCAAGCUGUAGGUCCU
Method in brief: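 Cleave-'n-Seq measured uncleaved targets by sequencing after a transcribed, DNA-blocked target RNA library […] was mixed with 1 nM active affinity-purified piRISC holding one synthetic guide, with or without 500 nM GTSF1 partner protein, at 33 °C in HEPES–potassium acetate buffer for 0–8 or 0–960 min. Counts were normalised to depth and to weakly complementary targets, three trials were pooled, and k3 was capped at 0.0001 min^-1. A burst-and-steady-state fit gave the pre-steady-state cleavage rate.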

[1] = auxiliary factor: 500 nM mouse GTSF1
[2] = auxiliary factor: none (no GTSF1)
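Further: 1 nM active piRISC with 0.1 nM target library at 33 °C single turnover.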

Sequence | pre-steady-state target cleavage rate [1] | pre-steady-state target cleavage rate [2]
UCCUGGAUGAGCUUGCAAAGUUUUUAGUUA | 0.0598 ± 0.0094 | 0.0127 ± 0.0037
UCCACCAACAGCUUGCAAAGUAUUUAGUUA | 1.05 ± 0.041 | 0.0371 ± 0.0082
UCCUGGUACAGCUUGCAUAGUAUUUAUGUUA | 0.323 ± 0.056 | 0.0226 ± 0.0064
UCCACCUACAGCUUGCAUAGUAUUUAAGUUA | 0.736 ± 0.051 | 0.0371 ± 0.0075
UCCUGCUACAGCUUGCAUAGUUAUUUAGUUA | 0.073 ± 0.013 | 0.00386 ± 0.0025
AGGACCUUCAGCUUGCAUAGUAUUUAGUUA | 1.32 ± 0.056 | 0.0842 ± 0.013
UGGACCUACAGCUUGCAUAGUAUCUUAGUUA | 1.14 ± 0.081 | 0.0298 ± 0.0075
UCCUCCUAGUGCUUGCAUAGUAUUUAGUUA | 0.384 ± 0.026 | 0.0278 ± 0.005
AGGACCUACAGCUUGCAUUGUAUUUAGAUA | 0.304 ± 0.035 | 0.0154 ± 0.0038
UCCUCCUACAGCUUGGAUAGAAUUUAGUUA | 0.332 ± 0.046 | 0.0124 ± 0.0032
UCCUGGUAGUGCUUGCAUAGUAUUUAGUUA | 0.622 ± 0.038 | 0.0448 ± 0.011
UGGACCUUCAGCUUGCAUAGUAUUUAGAAA | 0.39 ± 0.038 | 0.0166 ± 0.005
UCCUCCAACAGCUUGCAUAGUAUUUAGAUA | 0.491 ± 0.042 | 0.0201 ± 0.0048
UCCUGGAUGUCGUUUGCAUAGUAUUUAGUUA | 0.469 ± 0.029 | 0.0231 ± 0.0066
UCGACCUACAGCUUGCAUAGUAUUUUGAUA | 0.359 ± 0.031 | 0.0246 ± 0.008
UGGACCUACAGCUUGCAUAGUAAAAAGUUA | 0.337 ± 0.044 | 0.00424 ± 0.0024
UCCUGGAUCAGCUUGCAUAGUAUUUAGGUA | 0.35 ± 0.036 | 0.0219 ± 0.0041
UCGACCUACAGCUUGCAUAGUAUUUAAUUA | 0.315 ± 0.024 | 0.0439 ± 0.0095
UGGACCUACAGCUUGCAUAGAAUUUAGAUA | 0.173 ± 0.028 | 0.0108 ± 0.003
UCCUGCUUCAGCUUGCUUAGUAUUUAGUUA | 1.19 ± 0.065 | 0.0264 ± 0.0058
AGGACCUACAGCUUGCAAAGUAUUUAGAAA | 0.432 ± 0.045 | 0.00862 ± 0.0026
UCCUGGAACAGCUUGGAAAGUAUUUAGUUA | 0.68 ± 0.027 | 0.00543 ± 0.0022
